± gives the standard deviation. The list shows a part of the results, in another mix than the full data.
Test system: MIWI (PIWIL1) piRISC loaded with L1MC piRNA (30 nt)
Assay: pre-steady-state target cleavage rate (min^-1); MIWI and MILI are mouse PIWI proteins and EfPiwi is from a freshwater sponge; tags in brackets are library labels; higher = faster piRNA-guided slicing of the target
Conditions: guide: L1MC piRNA 5'p-UAACUAAAUACUAUGCAAGCUGUAGGUCCU
Summary of the method: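 At 33 °C in HEPES–potassium acetate buffer, a transcribed, DNA-blocked target RNA library […] was exposed for 0–8 or 0–960 min to 1 nM active affinity-purified piRISC carrying a single synthetic guide, with or without 500 nM GTSF1 partner protein. Uncleaved targets were sequenced and normalised to depth and to weakly complementary targets. With three trials pooled and k3 capped at 0.0001 min^-1, a burst-and-steady-state fit produced the pre-steady-state cleavage rate.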

[1] = auxiliary factor: 500 nM mouse GTSF1
[2] = auxiliary factor: none (no GTSF1)
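Also: 1 nM active piRISC with 0.1 nM target library at 33 °C single turnover.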

Sequence	pre-steady-state target cleavage rate [1]	pre-steady-state target cleavage rate [2]
UCCUGGAAGAGCUUGCAUACUAUUUAGUUA	0.222 ± 0.02	0.0207 ± 0.006
UGGACCUAGAGCUUGCAUAGUAUUUACAAA	0.187 ± 0.029	0.00469 ± 0.0029
UGGACCUACAGGUUGCAUAGUAUUUUGUUA	0.638 ± 0.067	0.0242 ± 0.0046
UCCUGGAUGAGGUUGCAUAGUAUUUUGUUA	0.102 ± 0.021	0.00409 ± 0.0022
UCCUCCUACGAGCUUGCAUAGUAUUUAGUUA	0.638 ± 0.065	0.0316 ± 0.0069
UGGACCUACAGCUUGCAUUCUAUUUAGUUA	0.268 ± 0.025	0.0115 ± 0.0044
UCCUCCUACAGGUUGCUUAGUAUUUAGUUA	1.17 ± 0.072	0.0114 ± 0.0023
UCCUCGUACAGGUUGCAUAGUAUUUAGUUA	1.2 ± 0.043	0.0358 ± 0.0068
UCCUGGAUGUGCUUGCAUAGCAUUUAGUUA	0.119 ± 0.013	0.0145 ± 0.0039
UCCUGCUACUGCUUGCAAAGUAUUUAGUUA	0.371 ± 0.042	0.0277 ± 0.0043
UCCUGGUACAGCUUGCAUACUAUUUUGUUA	0.107 ± 0.026	0.0132 ± 0.005
UGGGCCUACAGCUUGCAUAGUAUUUAGUUA	1.39 ± 0.08	0.0716 ± 0.013
AGGACCUACACCUAGCAUAGUAUUUAGUUA	1.01 ± 0.04	0.029 ± 0.005
UCCACCUACAGCUUGCAUAGUAUUUAAUUA	0.308 ± 0.043	0.0215 ± 0.0049
UCCUGGUUGAGCUUGCAUAGUAUUUAGUUA	0.59 ± 0.035	0.0369 ± 0.0084
UCCUGGAUGUCCUUGCAUAGUUUUUAGUUA	0.0106 ± 0.0044	0.00445 ± 0.0021
UCGACCAACAGCUUGCAUUGUAUUUAGUUA	0.973 ± 0.028	0.0383 ± 0.008
AGGACCUAGAGCUUGCAAAGUAUUUAGUUA	1.17 ± 0.054	0.0284 ± 0.0069
UCCUGGAACAGCUUGCAUAGUUAUUUAGUUA	0.0374 ± 0.0091	0.00591 ± 0.0025
UCCUGGAUGUGCUUGCUUAGUAUUUAGAUA	0.0448 ± 0.011	0.00904 ± 0.003
